Out of some 48,000 compounds screened, about 120 (0.25%) were called active. About 4% were inconclusive and are not listed. Calls follow the shape of the dose curve; as a rule, active = well fitted activation curve with a large enough effect; inconclusive = small, poorly fitted or top-dose-only effect, or another doubt; inactive = no such curve, though single readings can be large or run the other way. The list shows a part of the results.
assay: Primary qHTS for Identification of Small Molecule Activators of Huntingtin-Antisense Promoter Activity; details: HEK293 HTT-AS promoter firefly luciferase reporter, 24 h; series mostly up to 57.5 µM; activity change, positive = activation: at the top concentration; also: nearly all actives have a fitted effect of over 55% in size
Procedure, shortened: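 HEK293 luciferase promoter-reporter cells (2,500/well) plated 24 h, then compounds added at up to 57.5 uM final for 24 h at 37 °C. Firefly luminescence by Dual-Glo, normalized to vehicle (0%) and zero RLU (-100%).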

Activity change, positive = activation, inactive:
Cc1cc(C)cc(Oc2coc3cc(OCC(=O)NC4CCCCC4)ccc3c2=O)c1 -15.4%
Cc1cc(N)c(-n2cc3c(c2-c2ccc(Br)cc2)c(=O)n(C)c(=O)n3C)cc1C -28.1%
O=C(O)CCCNc1cc(N2CCN(C3CCCCC3)CC2)c2noc3c2c1C(=O)c1ccccc1-3 -28.8%
CCOc1ccc(-c2cc(C(=O)Nc3ccc(NC(C)=O)cc3)no2)cc1 -0.964%
CCOc1ccc(OCC)c(NC(=O)CC(C)n2nc(C)cc2C)c1 (stereo not drawn) -6.76%
Cc1ccc2onc(CNC(=O)NCc3cccc(Cl)c3)c2c1 -17.5%
CCc1ccccc1NC(=O)Cn1nc(C(F)(F)F)c2c1CCCC2 -10.9%
Clc1cccc(CNc2cc(-c3ccccc3)nc3nncn23)c1 -34.2%
Cc1cc(C)c(NC(=O)CCn2c(=O)c3cccn3c3cccnc32)c(C)c1 -5.11%
OCCN1CCN(C(c2ccccc2Cl)c2sc3nc(-c4ccco4)nn3c2O)CC1 (stereo not drawn) -2.11%
CNC(=O)c1nn(C)c2c1C(C)(C)Cc1cnc(Nc3ccc(N4CCN(C)CC4)cc3)nc1-2 -41.2%
FC(F)(F)Oc1ccc2c(c1)NC(c1ccncc1)=NC(c1cccs1)=N2 -11.9%
O=C(COc1ccc(Cl)cc1)Nc1ccc(C(=O)OCc2cc(=O)n3ccsc3n2)cc1 0%
C=Cc1ccc(Cn2c(C)c(CNCCc3ccccc3C)c(C(=O)O)c2C)cc1 -25.2%
Cc1ccn2c(=O)c(C(=O)NCCCN3CCCCC3C)c(O)nc2c1 (stereo not drawn) -6.89%
Cc1ccc(NC(=O)CCSc2nc(-c3ccco3)cc(C(F)(F)F)n2)cc1F 13.2% [at 11.5 µM, percent change from vehicle, -100% = no light]
COc1ccc2oc(=O)c(C(=O)Nc3ccc(C(=O)O)cc3)cc2c1 7.14%
Nc1ccc(S(=O)(=O)Nc2ccc(Cl)nn2)cc1 -6.68%
COc1ccc(OCC(=O)Nc2nnc3n2CCS3)cc1 -4.96%
CCOC(=O)N1CCN(Cc2nc3cc(NC(=O)c4ccc(OC)cc4)ccc3n2C(C)C)CC1 -53.4%
CCOc1ccc(NC(=O)CC2C(=O)N(c3ccc(C)cc3)C(=O)N2CCC2=CCCCC2)cc1 (stereo not drawn) 4.84%
Nc1nonc1-c1nc2ccccc2n1Cc1cccc(Cl)c1 -23.1%
Cc1ccc(CN(C(=O)c2ccccc2F)c2ccccn2)o1 9.19%
CC(C)c1ccc(NC(=O)c2ccc(F)c(S(=O)(=O)N3CCc4ccccc4C3)c2)cc1 -25.5%
O=C(c1cccn2c(=O)c3cc(Cl)ccc3nc12)N1CCN(c2ccccc2F)CC1 -5.35%
Cc1ccc(/C=N/NC(=O)c2ccccc2Oc2ccccc2)o1 -19.5%
CC(=O)Nc1ccc(S(=O)(=O)N2CCC(c3nnnn3-c3ccccc3)CC2)cc1 -31.4%
CCOc1ccc(-n2nc(CO)c(C(=O)NCCCc3ccccc3)n2)cc1 -3.69%
COc1ccc(Cl)cc1NC(=O)Cn1cc(C(=O)c2ccc(C)cc2)c(=O)c2ccc(C)nc21 -11%
CCOc1ccc(C(=O)Nc2cccc(C(=O)OCc3cc(=O)n4nc(C5CC5)sc4n3)c2)cc1 -45.6%
CCOC(=O)c1ccccc1NC(=O)CSc1nc(=O)[nH]c2c1CCC2 -7.88%
Cc1ccccc1CN1C(=O)C2(c3ccccc31)N(c1ccccc1)C(=O)CS2(=O)=O (stereo not drawn) -9.13%
COc1ccc(CCNC(=O)c2c(O)nc3ccccn3c2=O)cc1 -6.69%
COc1cccc(OCCSc2nc(C)c(Cc3ccccc3)c(=O)[nH]2)c1 -16.2%
Cc1ccc(N(C)C(=O)C2CCN(S(=O)(=O)c3c(C)noc3/C=C/c3c(C)cc(C)cc3C)CC2)cc1 -1.28%
COc1ccc(NC(=O)CCCN2C(=O)CCn3nc(-c4cn(C)c5ccccc45)cc32)cc1OC -12.4%
O=P(O)(O)OCC(O)CO (stereo not drawn) 0.532%
Cc1cccc(N2CCN(S(=O)(=O)c3ccc4[nH]c5c(c4c3)CCCCC5)CC2)c1C 11.3%
Cc1cccc(C(=O)NCC(=O)OCc2cc(=O)n3nc(C4CCCCC4)sc3n2)c1 -3.88%
COc1ccccc1C(=O)Nc1cc2c(cc1N1CCCC1)n(C)c(=O)c(=O)n2C -2.99%
COc1cccc(NC(=O)C2=C(C)C(=O)OC23CCN(C(C)=O)CC3)c1 -20.7%
COc1cc2c(cc1OC)C(COc1ccc3c(C)cc(=O)oc3c1)N(C(=O)c1cc(Cl)ccc1OC)CC2 (stereo not drawn) 14.4%
CCC(=O)N1c2ccc(S(=O)(=O)NCc3ccc(F)cc3)cc2CC1C (stereo not drawn) -32.1%
CCN(CC)C(=O)Cn1nnc2sc(-c3ccccc3)cc2c1=O 3.84%
C=CC[N+]1([C@H]2C[C@H]3[C@@H]4CC[C@H]5C[C@H](O)[C@@H](N6CCOCC6)C[C@]5(C)[C@@H]4CC[C@]3(C)[C@H]2OC(C)=O)CCCC1 -7.42%
Cc1ccc(NC(=O)C(C)n2nnc3sc4c(c3c2=O)CCCC4)cc1Cl (stereo not drawn) -13.7%
Cc1c(Cl)cccc1NC(=O)c1ncoc1-c1ccco1 12.3%
Oc1ccc(NCc2ccccc2OCc2ccccc2F)cc1 -1.7%
CC(=O)c1ccc(NC(=O)CCCSc2nc(-c3ccco3)cc(C(F)(F)F)n2)cc1 -39.2%
CCc1ccc(NC(=O)CSc2nc3ccccc3c(=O)n2CCNC(C)=O)cc1 4.22%
Cc1ccc(C(C)(O)c2nc3ccccc3s2)c(C)c1 (stereo not drawn) -14.5%
CCOC(=O)c1cccc(Nc2cc(-c3ccccc3)ncn2)c1 -41%
CCOC(=O)c1c(C)[nH]c(CCC(=O)NCc2ccccc2Cl)c1C -19%
Cc1c(Cl)cccc1NC(=O)c1ccc2snnc2c1 -3.74%
COc1ccccc1NC(=O)CCN1CCCCC1 -9.7%
CCOc1ccc(OCC)c(NC(=O)C2CCN(c3nnc(-n4cccc4)s3)CC2)c1 -11.7%
Cc1nc(-c2ccccc2)sc1CCNC(=O)C(=O)Nc1ccc2c(c1)OCO2 0.246%
CC(=O)c1ccc(Nc2cc(C)nc3nc(Cc4ccc(Cl)cc4)nn23)cc1 -35.5%
CCc1ccc2oc(C(=O)Nc3cc(C)ccc3C)cc(=O)c2c1 25.6% [at 11.5 µM, percent change from vehicle, -100% = no light]
O=C(Nc1cc2c(cc1C(=O)c1ccccc1Cl)OCCO2)c1ccccc1 -28.7%
CC(C)c1nn2c(=O)cc(COC(=O)c3ccccc3NC(=O)C3CCCCC3)nc2s1 -1.68%
CC1Cc2ccccc2N1C(=O)CSc1nnc(-c2ccccc2Cl)o1 (stereo not drawn) -10.2%
CN(C)c1ccc(CNC(=O)c2ccccc2NC(=O)c2nsc3ccccc23)cc1 19.8%
CCCOc1ccc(CNC(=O)c2ccc(-n3c(C)cc4c3CCC(C)C4)cc2)cc1 (stereo not drawn) -9.91%
Cc1cc2oc(C(=O)Nc3ccc(S(=O)(=O)Nc4ncccn4)cc3)cc(=O)c2cc1C 8.18%
Cc1ccc(NC(=O)Cn2ccn(-c3ccccc3)c(=O)c2=O)cc1 -6.45%
CCN(C(=O)CSc1nc2ccccc2[nH]1)c1ccccc1 -4.85%
Cc1ccc(Cn2cc(S(=O)(=O)c3cccc(Cl)c3)c(=O)c3cc(F)c(N4CCOCC4)cc32)cc1 6.18%
CCOc1ccc(C2NC(=O)c3c(COC)cc(C)nc3N2Cc2ccccc2)cc1OC (stereo not drawn) -1.52%
CC1CCC(Nc2nc3c(-c4cccc(C(F)(F)F)c4)nnn3c3ccccc23)CC1 (stereo not drawn) -4.08%
Cc1ccc(C)c(N2CCN(C(=O)c3ccc4c(c3)N(Cc3ccc(F)cc3)C(=O)c3ccccc3S4=O)CC2)c1 (stereo not drawn) -5.69%
COc1cc(OC)c(NC(=O)CCc2c(C)nc3cc(-c4ccccc4OC)nn3c2C)cc1Cl -26.3%
CC(C)OC(=O)c1c(NC(=O)C2c3ccccc3Oc3ccccc32)sc2c1CCCC2 -3.22% [at 11.5 µM, percent change from vehicle, -100% = no light]
COc1ccccc1-c1noc(CCC(=O)Nc2ccc(C)cc2C)n1 -15.5%
Cc1ccc(NC(=O)C2CCCN(S(=O)(=O)c3cn(C(C)C)cn3)C2)c(C)c1 (stereo not drawn) 4.14%
C[C@H]1C[C@H]2[C@@H]3CCC4=CC(=O)C=C[C@]4(C)[C@@]3(Cl)[C@@H](O)C[C@]2(C)[C@@]1(O)C(=O)CO -17.5%
CCC(Sc1nc2ccncc2[nH]1)C(=O)Nc1ccc(F)cc1 (stereo not drawn) -26.7%
CCOc1ccc(N(C)C(=O)C2CCN(S(=O)(=O)c3ccc4c(c3)CCCN4C(C)=O)CC2)cc1 -32%
COc1cccc(-n2c(=O)c3sc4ccccc4c3n(CC(=O)Nc3ccccc3OC)c2=O)c1 -31.2%
Cc1ccc(-n2nc(CO)c(C(=O)NCCc3ccccc3)n2)cc1 -13.4%
Cc1ccc(Cl)cc1N1CCN(C(=O)Cn2ncc3c([nH]c4ccccc43)c2=O)CC1 -3.2%
O=S(=O)(c1ccccc1)c1nnn2c1nc(Nc1ccccc1)c1cc(Cl)ccc12 -2.76%
Cc1cc(C)cc(NC(=O)C(NS(=O)(=O)c2cccc3nsnc23)c2ccccc2)c1 (stereo not drawn) -8.86%
O=C(CSc1nnc(-c2ccc(Cl)cc2)o1)N1CCc2ccccc21 0.0069%
CCOC(=O)N1CCN(C(=O)c2ccc3c(c2)N(Cc2cc(C)ccc2C)C(=O)c2ccccc2S3=O)CC1 (stereo not drawn) -42.8%
CCCCOc1nnc(-c2ccc(OCC)cc2)c2ccccc12 -20.1%
COc1ccc(CCNC(=O)CCc2cn(Cc3ccc(C)cc3)c3ccccc23)cc1OC -19.8%
CCCc1cc(=O)n2[nH]c(NCc3ccc(CC)cc3)nc2n1 4.66%
O=C1c2[nH]nc(-c3ccccc3)c2C(c2ccccc2)N1c1cccc(C(F)(F)F)c1 (stereo not drawn) -58.1%
O=C1SC(Nc2ccc(Cl)cc2)C(=O)N1Cc1ccccc1 (stereo not drawn) -18.8%
Cc1c(Cl)cccc1Nc1nc(N)nc(CSc2nc3ccccc3s2)n1 -19.6%
O=C1CS(=O)(=O)C2(C(=O)N(Cc3ccc(F)cc3)c3ccccc32)N1c1cccc(C(F)(F)F)c1 (stereo not drawn) -27.8%
Cc1ccc2oc(C(=O)Nc3ccc(S(=O)(=O)Nc4onc(C)c4C)cc3)cc(=O)c2c1 3.2% [at 11.5 µM, percent change from vehicle, -100% = no light]

Source: PubChem BioAssay AID1508624 (National Center for Advancing Translational Sciences (NCATS), 2021)
